Experimental data published in publication PMC12136788.
This is one part of the list.

T1: UNK ZnF1-3 (human, UniProt Q9C0B0 31-174)
T1 sequence: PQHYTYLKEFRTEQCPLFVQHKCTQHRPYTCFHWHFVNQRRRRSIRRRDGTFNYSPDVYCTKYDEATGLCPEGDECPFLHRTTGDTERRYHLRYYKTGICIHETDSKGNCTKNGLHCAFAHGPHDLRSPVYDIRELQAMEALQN

B1: 18845624_18845744_8819_CDS_ENSG00000157106_ENST00000446231|human|control|control (ssRNA)
RNA: GGGAGUUCUACAGUCCGACGAUCCAGUAACUGAACCAAGCAGGUGACGUUUCCGCUCAUACUGCAGAGUUCCUCCAAGAACCAGGCUCCAUCCCGAGAAGUCAGAUCAACCAGCUGUUCUCCAGCACUUGACGCUGCACCUUCCAACAGAGGAUUGAGCAUCA
B2: chr18:34933064:34933065:+_ENSMUSG00000034300_ENSMUST00000097622|mus_hu|FALSE|FALSE (ssRNA)
RNA: GGGAGUUCUACAGUCCGACGAUCUGGCCAACCACACUACACACACAGCACAGAUGCAGACAUUGACCCAGUGUCAGCCACAUGCCCUGGAGGUGUGCUCCACUCUGGGUAAGCCCAAUAUGUGAAAAUUCAAAUAGUCAAAACCAACAGAGGAUUGAGCAUCA
B3: chr11:68582865:68582866:-_ENSG00000110090_ENST00000265641|hu_mus|FALSE|FALSE (ssRNA)
RNA: GGGAGUUCUACAGUCCGACGAUCCUUGAAUCGGAUGAACUUCUUCUUCCAGGAGUGCAGCCCUGACAGGCAGAUCUGUUUGAGGGCUUCAUGGCUCAGGCGGAGAUCGAUGCCAUCAGGGGUGACUGUGAACUGGAAGGCCACCAACAGAGGAUUGAGCAUCA
B4: 57990141_58003822_369_CDS_ENSG00000108443_ENST00000225577|human|control|control (ssRNA)
RNA: GGGAGUUCUACAGUCCGACGAUCAUCUUUAGCAUUUCUUACUAUCAUUGCCUUUUUAAGCACCUUCAUGGCAAAUAUUUUCCCAGUAUUUGCUCCUGUUACUUUUCGUACUUGAAAAACCUUUCCAUAGCCCCCUUUACCAAGCAACAGAGGAUUGAGCAUCA
B5: chr1:114133195:114133196:+_ENSG00000081026_ENST00000369615|hu_mus|motif|central (ssRNA)
RNA: GGGAGUUCUACAGUCCGACGAUCCAUUUCCCAGUUUUUGGGCAGCGGUUCCAGAUUCUCAUCUCUCAUCAUAUAAUUUCGGAAGUCCAUGGAGCUAUUUGUUUGGUUAUAACUUGGAACAGUCUUCAUCCAGCAGUCAGAUGUCAACAGAGGAUUGAGCAUCA
B6: chr4:47484081:47484082:-_ENSMUSG00000039740_ENSMUST00000044148|mus_hu|FALSE|FALSE (ssRNA)
RNA: GGGAGUUCUACAGUCCGACGAUCCAUUAUACUAUGAAGCCAAAUUAAUCAACUUUGAUAAUGAUACACACUUAAACUAUGAAAACCAAUUAAGGCACAGUAUCAUUCAAAAUUUAUAGACAGAAGAGCAAUAAUCCCGAGAAACAACAGAGGAUUGAGCAUCA
B7: chr15:83907240:83907241:-_ENSMUSG00000018865_ENSMUST00000082365|mus_hu|FALSE|FALSE (ssRNA)
RNA: GGGAGUUCUACAGUCCGACGAUCGUGGAAUUCAGCUCAAAUUCCGAGCGCAACUCGGUCCUUUGGUGGCCGACUCUCCACCCACUGCAUGCAAAUGCUCCUGACUGCAUUAGACUCCCACCUGCCAGCCUCACCAGGCAGACUCAACAGAGGAUUGAGCAUCA
B8: chr7:148783431:148783432:+_ENSMUSG00000002957_ENSMUST00000003038|mus_mus|FALSE|FALSE (ssRNA)
RNA: GGGAGUUCUACAGUCCGACGAUCGCUCAGAAGAUUCACAGCUUCCAUGUGUCCAAAGUCAAUGUCAUGACCAAGGAGAAAGAUGAAGAGCAAUUUGCAGACAUACUUCUUUUUACUGUAGCCAUCAAGAGCCUUGUCACCUUUCAACAGAGGAUUGAGCAUCA
B9: 130405211_130409398_3816_CDS_ENSG00000196455_ENST00000356763|human|control|control (ssRNA)
RNA: GGGAGUUCUACAGUCCGACGAUCAGAGUUGAAGUGAUGCAUAUCCACAACACAACCGUCCUCCUUCUGAUCUAGAAUUCUGCUUUGUAGAGGAUGGAUUUUAGGAGACUUGGGCAGCUUAGAAGCCUCAAUUCCAAGAAGCUGCAACAGAGGAUUGAGCAUCA
B10: chr9:96305504:96305505:+_ENSG00000048828_ENST00000277165|hu_mus|FALSE|FALSE (ssRNA)
RNA: GGGAGUUCUACAGUCCGACGAUCAGCUGCCCACUCCUUAAUGAUCAGUGGCGAGAAUUCUGGUGGAAGUCUGUUCUUUCUAAAAGCAAGUCUCUCAGUUUUCUUUCUGCUUUCUGCCAAACUAAACAGGACUCCGUAAACAUACAACAGAGGAUUGAGCAUCA
B11: chr2:84460416:84460417:-_ENSMUSG00000034101_ENSMUST00000111697|mus_hu|FALSE|FALSE (ssRNA)
RNA: GGGAGUUCUACAGUCCGACGAUCGCCACCUGGAUAACCAUCUUCAUAGUGGCGACUAUAACCAUCAGGAGGGUAGUGGAAGUUCCUAGGAAGGGUAGCAGUGCCAGCUUGCCCCACAUAGGGACCAGGUCCCCCAUUGCCAUUCAACAGAGGAUUGAGCAUCA
B12: chr1:80268134:80268135:-_ENSMUSG00000004364_ENSMUST00000163119|mus_mus|motif|central (ssRNA)
RNA: GGGAGUUCUACAGUCCGACGAUCGACUCUGUGUAGUUUAGAUGUGAAUUGAUCAUUAACUGUAAAUAUGUGGCCACUUUCGGUCUCCUUGGACUUGGGUUCUUUUGUGAGGACCCGCUGUGUUGGUUUACCACAGGCGAGGGACAACAGAGGAUUGAGCAUCA
B13: chr7:56126341:56126342:+_ENSG00000146731_ENST00000540286|hu_mus|hu_hu_hu_mus_True|1_38 (ssRNA)
RNA: GGGAGUUCUACAGUCCGACGAUCCAUGUUUCUCCUCUUGGCUCUGCGCAGAGCUACGAUCCCUUCUUUCGCAAGGGCAUCUAAGGAAAAGGGGUCAAUUCCCUUUUGAUUAAUAACGACAAAUCCUUUAUCUGAGUCGCCACACAACAGAGGAUUGAGCAUCA
B14: chr14:96998876:96998877:+_ENSG00000090060_ENST00000216277|hu_mus|motif|central (ssRNA)
RNA: GGGAGUUCUACAGUCCGACGAUCGAUAAAGCUGGCAAGUUCUUGCUACUAGCAUAGCCCAGGAAACACCACCGAGGAAACCGGAUAUAUUGGAAUAGAUGUUGUGCCGUUUGGCCCACAGUUUGAUGGCUCUCAGAGUUAACCCAACAGAGGAUUGAGCAUCA
B15: chr11:29999966:29999967:-_ENSMUSG00000020315_ENSMUST00000011877|mus_mus|FALSE|FALSE (ssRNA)
RNA: GGGAGUUCUACAGUCCGACGAUCACAUGUUGUGUGUUAGUAAGUGAUGCCGGAUACAAAUGGUUUGGCCUGUAGGUUUACAUGGAGCUGCACUGUGGCUGCAGCAAGAGAUCAGAAUACAUGAUCUGUUUAAUAAAGGCUACACAACAGAGGAUUGAGCAUCA
B16: chr7:118215947:118215948:-_ENSMUSG00000005610_ENSMUST00000162415|mus_mus|FALSE|FALSE (ssRNA)
RNA: GGGAGUUCUACAGUCCGACGAUCGGUCCUUGCAAUAGACUGCCUCUGCUUGAGAACUUAGGAUGUAAUUAUUGCAUGCUGCUAAUAUUCUAUCUAAACAUUAAGGAUACUCCUAAAGUAUUUGAUGGUAGACUAUGAUUAAGACAACAGAGGAUUGAGCAUCA
B17: chr6:17615347:17615348:+_ENSMUSG00000015733_ENSMUST00000015877|mus_mus|FALSE|FALSE (ssRNA)
RNA: GGGAGUUCUACAGUCCGACGAUCAUCUGCUCAUGCAAUUUUCAUUUAUGCAUUCUGCAUCUCUUUGCCAAUCUUGUAGCUAAGGAUCUUGUUCCAGUCGAUCUUAGUACGUGUCACUGGCAACUGUCGACGUAAGGCUUUGAACAACAGAGGAUUGAGCAUCA
B18: chr13:108516651:108516652:-_ENSMUSG00000032846_ENSMUST00000105097|mus_mus|motif|central (ssRNA)
RNA: GGGAGUUCUACAGUCCGACGAUCAUCGUGUGCCAUUAGGAAGGUCUCUCGGGCCUUGCUGAGGAACUCGAUAAACUCGCGGUAGUGCCGAGGACUGAUGUGUGUGAGGCGUGAGUGCGUUGUGUUGAUAUAGGCCCCGAUCGUCAACAGAGGAUUGAGCAUCA
B19: chr7:7679991:7679992:-_ENSG00000106399_ENST00000396682|hu_hu|hu_hu_hu_mus_False|88_98 (ssRNA)
RNA: GGGAGUUCUACAGUCCGACGAUCUGGGAUGAAUCUUUUCCAGCCUCCCUACGAAGCACACGGGCCGGUCGAUAUACUGUGGUAACAUGCUGGCGUUGACGCGCGCUUUGGGGAGCUGCAUUAUGUCCUCCAUGAUUCUGCCGCCAACAGAGGAUUGAGCAUCA
B20: chr4:38702237:38702238:+_ENSG00000109787_ENST00000261438|hu_hu|motif|central (ssRNA)
RNA: GGGAGUUCUACAGUCCGACGAUCUAAGCAGAAAGAUUAUUUUGACCCUCUAACACUAAGUACAUAACAGAAAAAAAAGUGCGGGUAUUUGUAAAACAAUAUUGUUGUAGCCCUCGUUUAAUGCAUGUAAAGAUGGCUUUGUAACAACAGAGGAUUGAGCAUCA
B21: 21613190_21613310_60_5pUTR_ENSMUSG00000021820_ENSMUST00000100837|mouse|control|control (ssRNA)
RNA: GGGAGUUCUACAGUCCGACGAUCGGCGGGCGGACGCGGCGGUGCAGCCCGCGCCGACGUCGGUGCACAGUCACCGCCGCCCGGCCGAGGGAGCAAGAGGAGGAGACGGGGCUGAGCCCGGCAGCACCGCGAGACUUUACCGGACAACAGAGGAUUGAGCAUCA
B22: 40054077_40054988_1424_CDS_ENSG00000131473_ENST00000352035|human|control|control (ssRNA)
RNA: GGGAGUUCUACAGUCCGACGAUCGCUGGGGGCUGGCGUCGAUGUGCUCCCGCUGGCGUUGAGGAGGAAGUUUGCAGUGUGGGCCGCUGUGGGUGGCUGGUUGGGGAUGGGCCGGUGGCCCAGGGCCAUGCCCACAAUGGCCGUCAACAGAGGAUUGAGCAUCA

Biological target: T1, UNK ZnF1-3
Test: nsRBNS (natural sequence RNA bind-n-seq); RBNS binding buffer (assumed for nsRBNS): 25 mM Tris pH 7.5, 150 mM KCl, 3 mM MgCl2, 0.01% Triton X-100, 500 ug/ml BSA, 20 U/ml SUPERase-In, 4 C; UNK is unkempt and MSI1 is Musashi-1; names of the RNAs are library labels; protein concentration not given here; high values mean tight binding

Question: Which binding signal does the source give for B1 here?
Answer: Its binding signal is 0.996 enrichment R.

Question: Which binding signal does the source give for B2 here?
Answer: Its binding signal is 1.54 enrichment R.

Question: For B3, which binding signal is on record?
Answer: The binding signal was 0.846 enrichment R.

Question: Which binding signal does the source give for B4 here?
Answer: Its binding signal is 0.517 enrichment R.

Question: B5 was tested. Which binding signal did it give?
Answer: Its binding signal is 0.856 enrichment R.

Question: B6 was tested. Which binding signal did it give?
Answer: The binding signal was 1.12 enrichment R.

Question: B7 was tested. Which binding signal did it give?
Answer: Its binding signal is 0.951 enrichment R.

Question: For B8, which binding signal is on record?
Answer: Its binding signal is 1.29 enrichment R.

Question: For B9, which binding signal is on record?
Answer: Its binding signal is 0.919 enrichment R.

Question: Which binding signal does the source give for B10 here?
Answer: The binding signal was 1.49 enrichment R.

Question: How did the binding signal turn out when B11 was run?
Answer: The binding signal was 0.868 enrichment R.

Question: How did the binding signal turn out when B12 was run?
Answer: The binding signal was 0.467 enrichment R.

Question: For B13, which binding signal is on record?
Answer: The binding signal was 0.887 enrichment R.

Question: Which binding signal does the source give for B14 here?
Answer: The binding signal was 1.36 enrichment R.

Question: With B15 as the binder, how does the binding signal read?
Answer: The binding signal was 1.23 enrichment R.

Question: B16 was tested. Which binding signal did it give?
Answer: The binding signal was 1.31 enrichment R.

Question: How did the binding signal turn out when B17 was run?
Answer: The binding signal was 0.434 enrichment R.

Question: B18 was tested. Which binding signal did it give?
Answer: Its binding signal is 1.12 enrichment R.

Question: B19 was tested. Which binding signal did it give?
Answer: The binding signal was 0.573 enrichment R.

Question: B20 was tested. Which binding signal did it give?
Answer: The binding signal was 1.14 enrichment R.

Question: How did the binding signal turn out when B21 was run?
Answer: The binding signal was 1.62 enrichment R.

Question: Which binding signal does the source give for B22 here?
Answer: The binding signal was 0.683 enrichment R.
